Results: PubChem BioAssay AID504841 (National Center for Advancing Translational Sciences (NCATS), 2011)
Hit rate of the full screen: of about 1,100 compounds, about 160 (15%) were called active. The shares of active, inactive and inconclusive entries below differ from those in the screen. The call rests on the fitted dose curve; in most records, active means well fitted inhibition curve with a large enough effect; inconclusive means small, poorly fitted or top-dose-only effect; inactive means no such curve, though single readings can be large or run the other way. Where the call is inconclusive, the potency comes from a doubtful curve fit.
Further: nearly all actives have a fitted effect of over 50% in size.
Potency means the concentration at half of the fitted maximal effect; tags describe the fitted curve by direction and shape.

Each compound was assayed against ATP-dependent DNA helicase Q1 (Homo sapiens) (UniProt P46063) (assay: Confirmation qHTS Assay for Inhibitors of RecQ-Like Dna Helicase 1 (RECQ1) - Round 2 Cherry Picks). Settings: recombinant RECQ1 DNA unwinding, red fluorescence; series mostly up to 119 µM.
Sequence of UniProt P46063 (P46063 whole entry, looked up): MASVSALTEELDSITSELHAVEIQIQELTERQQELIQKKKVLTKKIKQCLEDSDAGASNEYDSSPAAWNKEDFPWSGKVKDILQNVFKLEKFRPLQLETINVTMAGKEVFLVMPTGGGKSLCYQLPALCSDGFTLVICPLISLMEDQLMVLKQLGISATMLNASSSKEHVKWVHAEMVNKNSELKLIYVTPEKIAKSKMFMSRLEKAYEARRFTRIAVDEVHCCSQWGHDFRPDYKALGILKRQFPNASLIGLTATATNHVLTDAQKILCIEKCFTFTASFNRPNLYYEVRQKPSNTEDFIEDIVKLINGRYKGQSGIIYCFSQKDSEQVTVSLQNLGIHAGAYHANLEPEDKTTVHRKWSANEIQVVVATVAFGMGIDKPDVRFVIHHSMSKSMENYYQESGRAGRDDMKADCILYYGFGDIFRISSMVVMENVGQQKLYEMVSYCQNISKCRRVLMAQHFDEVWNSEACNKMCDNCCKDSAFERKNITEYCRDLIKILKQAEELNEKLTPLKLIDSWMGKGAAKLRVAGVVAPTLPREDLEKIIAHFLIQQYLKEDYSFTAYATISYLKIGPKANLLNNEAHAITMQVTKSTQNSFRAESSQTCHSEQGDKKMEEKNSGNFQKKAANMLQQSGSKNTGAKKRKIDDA
Outline: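 RECQ1T1 (50 nM) preincubated 15 min with compound, then 200 nM TAMRA/BHQ-2 forked duplex and 2 mM ATP added (final). Buffer pH 8.0 with 2.5 ug/ml poly(dI-dC); fluorescence increase read twice, 2 hours apart, at room temperature.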
`O=C(O)C1Nc2c(O)cc(Cl)c([N+](=O)[O-])c2C2C=CCC12` (configuration not stated) was tested, and the Potency was inconclusive: 1.26 µM [inhibitor, full curve].
`CCOc1ccc(C(=O)Nc2ccc(-c3nc4ccccc4[nH]3)cc2)cc1[N+](=O)[O-]` was tested, and the Potency was inconclusive: 22.4 µM [inhibitor, full curve, poor fit].
With `COc1ccccc1-n1c(SCC(=O)Nc2ccccc2C)nc(O)cc1=O` the Potency was “inactive”.
For `CCOc1c(OC(C)=O)ccc(/C=C/c2ccc3cccc(OC(C)=O)c3n2)c1[N+](=O)[O-]`, the Potency was “inactive”.
For `COc1ccc(Cc2nnc(NC(=O)Cc3cccs3)s2)cc1OC`, the Potency was inconclusive: 63.1 µM [inhibitor, partial curve, poor fit].
With `CC1=NN(c2ccc(N)cc2)C(=O)C1` the Potency was “inactive”.
In the case of `CCCCC1=CC2=CC(=O)C(C)(OC(=O)C3CCCC3)C(=O)C2=CO1` (configuration not stated), the Potency was active: 79.4 µM.
`N=C1S/C(=C\c2ccco2)C(=O)N1c1nccs1` was tested, and the Potency was “inactive”.
In the case of `CCc1nnc(NC(=O)c2sc3nc4c(cc3c2N)CCCCCC4)s1`, the Potency was inconclusive: 28.2 µM [inhibitor, full curve].
With `O=C(COC(=O)c1ccc(S(=O)(=O)N2CCc3ccccc3C2)cc1)NC1CCS(=O)(=O)C1` (configuration not stated) the Potency was inconclusive: 35.5 µM [inhibitor, partial curve].
`COc1cccc(NC(=O)CC2S/C(=N\S(=O)(=O)c3ccccc3)N(c3ccccc3)C2=O)c1` (configuration not stated) was tested, and the Potency was “inactive”.
`C=CCn1c(=O)[nH]c2cc(C(=O)N3CCN(c4ccc(C(C)=O)cc4)CC3)ccc2c1=O` was tested, and the Potency was inconclusive: 12.6 µM [inhibitor, partial curve, poor fit].
`O=C(NCCCN1CCCCCC1)c1ccc(N2CCCC2=O)cc1` was tested, and the Potency was “inactive”.
For `O=c1[nH]c(Nc2ccccc2)cc2ccccc12`, the Potency was inconclusive: 56.2 µM [inhibitor, partial curve, poor fit].
With `CCOC(=O)CN1C(=O)S/C(=C/C=C/c2ccc(N(C)C)cc2)C1=O` the Potency was active: 31.6 µM.
For `COc1ccc(Cl)cc1NC(=O)CN(C)CC(=O)Nc1ccc(C)cc1Br`, the Potency was “inactive”.
`O=C1NC(=Nc2ccc3ccccc3c2)S/C1=C/c1ccco1` was tested, and the Potency was inconclusive: 56.2 µM [inhibitor, partial curve].
In the case of `CCCCN(C(=O)Cn1ncc(Cl)c(Cl)c1=O)c1c(N)n(CC(C)C)c(=O)[nH]c1=O`, the Potency was inconclusive: 50.1 µM [inhibitor, partial curve, poor fit].
With `COc1cc(/C=C2\CC/C(=C\c3cc(OC)c(O)c(OC)c3)C2=O)cc(OC)c1O` the Potency was active: 2.82 µM.
For `CCNc1ncc2nc(-c3cccs3)c(=O)n(CCc3ccccc3)c2n1`, the Potency was active: 79.4 µM.
For `COc1ccc(-c2cc(C(=O)O)no2)cc1`, the Potency was “inactive”.
`Cn1c(SCC(=O)Nc2ccc3nc(SCC(=O)N4CCCC4)sc3c2)nnc1-c1ccc(N)cc1` was tested, and the Potency was inconclusive: 1.41 µM [inhibitor, full curve].
With `Oc1ccccc1-c1nnc(SCCN2CCOCC2)n1Cc1ccccc1` the Potency was inconclusive: 1.12 µM [inhibitor, full curve].
With `COC(C(=O)Nc1ccc(S(=O)(=O)Nc2ccc(C)c(C)c2)cc1)c1ccccc1` (configuration not stated) the Potency was “inactive”.
`COc1ccccc1Nc1nc(-c2c(C)nc3ncccn23)cs1` was tested, and the Potency was inconclusive: 56.2 µM [inhibitor, partial curve, poor fit].
With `COc1ccc(NC(=O)c2c3c(nc4ccccc24)CCC3)cc1S(=O)(=O)N1CCOCC1` the Potency was inconclusive: 44.7 µM [inhibitor, partial curve].
For `Cc1cc(C)c(S(=O)(=O)NCc2ccc3c(c2)cc(C)n3C)c(C)c1`, the Potency was active: 56.2 µM.
`Cc1cc(C)n2c(SC/C(O)=C(\C#N)c3nc4ccccc4[nH]3)nnc2n1` was tested, and the Potency was inconclusive: 20 µM [inhibitor, partial curve, poor fit].
`c1coc(-c2nnc3sc(Cc4cccs4)nn23)c1` was tested, and the Potency was inconclusive: 63.1 µM [inhibitor, partial curve, poor fit].
For `Oc1cc2c(cc1O)[C@@H]1c3ccc(O)c(O)c3OC[C@]1(O)C2`, the Potency was inconclusive: 1.78 µM [inhibitor, full curve].
For `COc1ccc(C(=O)NCc2ccc3c(c2)cc(C)n3C)cc1`, the Potency was “inactive”.
`COc1ccc(NC(=O)CSc2nncn2C)cc1OC` was tested, and the Potency was “inactive”.
With `c1ccc(Nc2cccc3c(Nc4ccccc4)cccc23)cc1` the Potency was “inactive”.
With `Cc1cc2c(c(=O)o1)C(c1ccc([N+](=O)[O-])o1)C(C#N)=C(N)O2` (configuration not stated) the Potency was “inactive”.
With `CCCSC1=N/C(=C\C=C\c2ccco2)C(=O)S1` the Potency was inconclusive: 44.7 µM [inhibitor, partial curve].
With `CC1=Nc2ccccc2/C1=C\c1nc(-c2ccc(F)cc2)oc1O` the Potency was inconclusive: 56.2 µM [inhibitor, partial curve, poor fit].
`COc1ccc(N2Cc3cccc(C(=O)O)c3C2=O)cc1` was tested, and the Potency was active: 4.47 µM.
In the case of `CCn1c(C)c(C2=CCN(S(=O)(=O)c3ccccc3)CC2)c2ccccc21`, the Potency was inconclusive: 22.4 µM [inhibitor, full curve].
With `Cc1nn(CCc2nc(-c3ccco3)cs2)c2[nH]c(=O)cc(C(F)(F)F)c12` the Potency was inconclusive: 50.1 µM [inhibitor, partial curve].
In the case of `Cc1cc(C)c2nc(-c3ccccn3)cc(C(=O)Nc3ccc(S(=O)(=O)Nc4cc(C)on4)cc3)c2c1`, the Potency was inconclusive: 39.8 µM [inhibitor, partial curve].
In the case of `C/C(N)=C(/C#N)C(=O)COC(=O)C1Cc2ccccc2CN1S(C)(=O)=O` (configuration not stated), the Potency was inconclusive: 39.8 µM [inhibitor, partial curve].
`Cc1ccc2c(=O)c3ccccc3n(CCCN)c2c1C` was tested, and the Potency was active: 17.8 µM.
In the case of `NS(=O)(=O)c1cccc(NS(=O)(=O)c2ccc(/C=C/C(=O)OCC(=O)c3ccc(Br)cc3)cc2)c1`, the Potency was “inactive”.
`Cc1cc(=O)n2[nH]c(-c3ccsc3-n3c(C)ccc3C)cc2n1` was tested, and the Potency was inconclusive: 44.7 µM [inhibitor, partial curve].
With `Nc1ncnc2oc(-c3ccco3)c(-c3ccco3)c12` the Potency was “inactive”.
`Cc1cc(SCC(=O)c2ccc(O)c(O)c2)nc2ccccc12` was tested, and the Potency was active: 10 µM.
For `Nc1ccc2c(c1Cl)C(=O)c1ccc(N)c(Cl)c1C2=O`, the Potency was inconclusive: 1 µM [inhibitor, full curve].
With `CCc1ccc2[nH]c(=O)c(CN(Cc3ccccc3)Cc3nnnn3Cc3ccco3)cc2c1` the Potency was “inactive”.
For `O=C1CCCC2=C1C(c1ccc(O)c(O)c1)Nc1ccc3ncccc3c12` (configuration not stated), the Potency was inconclusive: 50.1 µM [inhibitor, partial curve].
With `Cc1ccc(CSC2=Nc3ccccc3C3=NC(CC(=O)NCc4ccco4)C(=O)N23)cc1` (configuration not stated) the Potency was inconclusive: 56.2 µM [inhibitor, partial curve].
`Cc1ccc(-c2nc3c(c(=O)[nH]c(=O)n3Cc3ccccc3)n2C)o1` was tested, and the Potency was inconclusive: 56.2 µM [inhibitor, partial curve].
With `O=C1c2ccccc2C(=O)N1Cc1cc(-c2ccccc2Cl)no1` the Potency was “inactive”.
With `CN(C)S(=O)(=O)c1ccc(NC(=O)Cc2ccc(S(=O)(=O)N3CCOCC3)s2)cc1` the Potency was inconclusive: 100 µM [inhibitor, partial curve, poor fit].
For `COc1ccccc1CNC(=O)COC(=O)c1cc(-c2ccco2)nc2ccccc12`, the Potency was inconclusive: 3.98 µM [inhibitor, full curve].
In the case of `O=C(CSc1nnnn1-c1ccc(F)cc1)c1ccc(O)c(O)c1`, the Potency was inconclusive: 14.1 µM [inhibitor, partial curve, poor fit].
For `O=C(/C=C/c1ccco1)Nc1ccc(C(=O)N2CCOCC2)cc1`, the Potency was “inactive”.
In the case of `O=P1(O)Oc2c(c(-c3ccccc3)cc3ccccc23)-c2c(-c3ccccc3)cc3ccccc3c2O1`, the Potency was inconclusive: 10 µM [inhibitor, partial curve, poor fit].
In the case of `CC1(OC(=O)c2cnc3ccccc3n2)C(=O)C=C2C=C(C3CC3)OC=C2C1=O` (configuration not stated), the Potency was “inactive”.
For `CC1CCC2(CC1)NC(=O)N(CC(=O)Nc1sc3c(c1C(N)=O)CCC3)C2=O` (configuration not stated), the Potency was inconclusive: 50.1 µM [inhibitor, partial curve].
`COc1cc(/C=C(\C#N)c2nc3ccccc3[nH]2)cc(OC)c1O` was tested, and the Potency was active: 56.2 µM.
`O=C(/C=C/c1ccccc1)NCCc1ccccc1` was tested, and the Potency was inconclusive: 39.8 µM [inhibitor, partial curve].
For `O=C(O)c1c2c(nc3ccccc13)/C(=C/c1ccc(O)cc1)CC2`, the Potency was inconclusive: 56.2 µM [inhibitor, partial curve, poor fit].
In the case of `Cc1c(C2=CCN(S(=O)(=O)c3ccc(Br)cc3)CC2)c2ccccc2n1C`, the Potency was active: 44.7 µM.
With `COc1ccc(-n2c(O)c(/C=N/NS(=O)(=O)c3cc(C)ccc3C)c3ccccc3c2=O)cc1OC` the Potency was active: 50.1 µM.
For `CSc1nc2ccccc2cc1/C=C(\C#N)c1cccc(Cl)c1`, the Potency was “inactive”.
With `COC(=O)c1cn(C)c2ccc(S(=O)(=O)N3CCCC3)cc2c1=O` the Potency was “inactive”.
`CCNC(=O)COC(=O)c1cc(-c2ccco2)nc2ccccc12` was tested, and the Potency was inconclusive: 50.1 µM [inhibitor, partial curve].
